B1: AGGUUCU (DNA:RNA)
RNA: GGGAGACCGGAAUUCAGAUUGUCCAGGUUCUUUAAAUCCCGUCGUAGCCACCA
DNA 1: CAATCTGAATTCCGGTCTCCC
DNA 2: TGGTGGCTACGACGGGATT
B2: AUCGGCU (DNA:RNA)
RNA: B1 RNA with G26U, G27C, U28G, U29G
DNA 1: CAATCTGAATTCCGGTCTCCC
DNA 2: TGGTGGCTACGACGGGATT
B3: CAUCGAU (DNA:RNA)
RNA: B1 RNA with A25C, G26A, G27U, U28C, U29G, C30A
DNA 1: CAATCTGAATTCCGGTCTCCC
DNA 2: TGGTGGCTACGACGGGATT
B4: GCCACAC (DNA:RNA)
RNA: GGGAGACCGGAAUUCAGAUUGUCCGCCACACUUAAAUCCCGUCGUAGCCACCA
DNA 1: CAATCTGAATTCCGGTCTCCC
DNA 2: TGGTGGCTACGACGGGATT
B5: UUCGUCU (DNA:RNA)
RNA: B1 RNA with A25U, G26U, G27C, U28G
DNA 1: CAATCTGAATTCCGGTCTCCC
DNA 2: TGGTGGCTACGACGGGATT
B6: CAGGGGC (DNA:RNA)
RNA: B1 RNA with A25C, G26A, U28G, U29G, C30G, U31C
DNA 1: CAATCTGAATTCCGGTCTCCC
DNA 2: TGGTGGCTACGACGGGATT
B7: UCCAGGA (DNA:RNA)
RNA: B4 RNA with G25U, C29G, A30G, C31A
DNA 1: CAATCTGAATTCCGGTCTCCC
DNA 2: TGGTGGCTACGACGGGATT
B8: AUUAAGU (DNA:RNA)
RNA: B1 RNA with G26U, G27U, U28A, U29A, C30G
DNA 1: CAATCTGAATTCCGGTCTCCC
DNA 2: TGGTGGCTACGACGGGATT
B9: CUCGAUA (DNA:RNA)
RNA: B4 RNA with G25C, C26U, A28G, C29A, A30U, C31A
DNA 1: CAATCTGAATTCCGGTCTCCC
DNA 2: TGGTGGCTACGACGGGATT
B10: CUCGCGG (DNA:RNA)
RNA: B4 RNA with G25C, C26U, A28G, A30G, C31G
DNA 1: CAATCTGAATTCCGGTCTCCC
DNA 2: TGGTGGCTACGACGGGATT
B11: CACCUCC (DNA:RNA)
RNA: B1 RNA with A25C, G26A, G27C, U28C, U31C
DNA 1: CAATCTGAATTCCGGTCTCCC
DNA 2: TGGTGGCTACGACGGGATT
B12: UUCUGAC (DNA:RNA)
RNA: B4 RNA with G25U, C26U, A28U, C29G
DNA 1: CAATCTGAATTCCGGTCTCCC
DNA 2: TGGTGGCTACGACGGGATT
B13: GUUUCAU (DNA:RNA)
RNA: B4 RNA with C26U, C27U, A28U, C31U
DNA 1: CAATCTGAATTCCGGTCTCCC
DNA 2: TGGTGGCTACGACGGGATT
B14: AGGUUAG (DNA:RNA)
RNA: B1 RNA with C30A, U31G
DNA 1: CAATCTGAATTCCGGTCTCCC
DNA 2: TGGTGGCTACGACGGGATT
B15: AGUUCCC (DNA:RNA)
RNA: B1 RNA with G27U, U29C, U31C
DNA 1: CAATCTGAATTCCGGTCTCCC
DNA 2: TGGTGGCTACGACGGGATT
B16: GCGUAGC (DNA:RNA)
RNA: B4 RNA with C27G, A28U, C29A, A30G
DNA 1: CAATCTGAATTCCGGTCTCCC
DNA 2: TGGTGGCTACGACGGGATT
B17: AACGUAU (DNA:RNA)
RNA: B1 RNA with G26A, G27C, U28G, C30A
DNA 1: CAATCTGAATTCCGGTCTCCC
DNA 2: TGGTGGCTACGACGGGATT
B18: ACCCGCG (DNA:RNA)
RNA: B1 RNA with G26C, G27C, U28C, U29G, U31G
DNA 1: CAATCTGAATTCCGGTCTCCC
DNA 2: TGGTGGCTACGACGGGATT
B19: UUCUGGC (DNA:RNA)
RNA: B4 RNA with G25U, C26U, A28U, C29G, A30G
DNA 1: CAATCTGAATTCCGGTCTCCC
DNA 2: TGGTGGCTACGACGGGATT
B20: AUUGUGU (DNA:RNA)
RNA: B1 RNA with G26U, G27U, U28G, C30G
DNA 1: CAATCTGAATTCCGGTCTCCC
DNA 2: TGGTGGCTACGACGGGATT
B21: GCAUUAG (DNA:RNA)
RNA: B4 RNA with C27A, A28U, C29U, C31G
DNA 1: CAATCTGAATTCCGGTCTCCC
DNA 2: TGGTGGCTACGACGGGATT
B22: UUCCAGA (DNA:RNA)
RNA: B4 RNA with G25U, C26U, A28C, C29A, A30G, C31A
DNA 1: CAATCTGAATTCCGGTCTCCC
DNA 2: TGGTGGCTACGACGGGATT
B23: UUCGUGU (DNA:RNA)
RNA: B1 RNA with A25U, G26U, G27C, U28G, C30G
DNA 1: CAATCTGAATTCCGGTCTCCC
DNA 2: TGGTGGCTACGACGGGATT
B24: ACCUCCG (DNA:RNA)
RNA: B1 RNA with G26C, G27C, U29C, U31G
DNA 1: CAATCTGAATTCCGGTCTCCC
DNA 2: TGGTGGCTACGACGGGATT
B25: AGACUUA (DNA:RNA)
RNA: B1 RNA with G27A, U28C, C30U, U31A
DNA 1: CAATCTGAATTCCGGTCTCCC
DNA 2: TGGTGGCTACGACGGGATT
B26: CCUAAGA (DNA:RNA)
RNA: B4 RNA with G25C, C27U, C29A, A30G, C31A
DNA 1: CAATCTGAATTCCGGTCTCCC
DNA 2: TGGTGGCTACGACGGGATT
B27: GAAUAAU (DNA:RNA)
RNA: B1 RNA with A25G, G26A, G27A, U29A, C30A
DNA 1: CAATCTGAATTCCGGTCTCCC
DNA 2: TGGTGGCTACGACGGGATT
B28: GUCACCA (DNA:RNA)
RNA: B4 RNA with C26U, A30C, C31A
DNA 1: CAATCTGAATTCCGGTCTCCC
DNA 2: TGGTGGCTACGACGGGATT
B29: GGAAUAC (DNA:RNA)
RNA: B4 RNA with C26G, C27A, C29U
DNA 1: CAATCTGAATTCCGGTCTCCC
DNA 2: TGGTGGCTACGACGGGATT
B30: UCUUAAC (DNA:RNA)
RNA: B4 RNA with G25U, C27U, A28U, C29A
DNA 1: CAATCTGAATTCCGGTCTCCC
DNA 2: TGGTGGCTACGACGGGATT
B31: UCGCGUC (DNA:RNA)
RNA: B4 RNA with G25U, C27G, A28C, C29G, A30U
DNA 1: CAATCTGAATTCCGGTCTCCC
DNA 2: TGGTGGCTACGACGGGATT

Numbering of substitutions follows the chain as printed; changes in the protein carry UniProt numbers. This is one part of the list.

In the assay the target is T1, RBFOX1 RRM (Homo sapiens, UniProt Q9NWB1 109-208).
T1 sequence: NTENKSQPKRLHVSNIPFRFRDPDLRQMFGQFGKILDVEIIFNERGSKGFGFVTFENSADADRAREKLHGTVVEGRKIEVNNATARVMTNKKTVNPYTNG
Description: EMSA; HiTS-Eq, 1 nM pool, 10 min; buffer printed only for the single-RNA assays: 10 mM Tris pH 7.5, 150 mM NaCl, 3.4 mM EDTA, 0.001% NP-40, 30 C. As to conditions: tags: His6 N-terminal (pET28a); label: 5' 32P. In a few lines: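 Purified RbFox RRM, wild type or mutant, was incubated for 10 min in 50 µL with 1 nM of a 5′-radiolabelled RNA pool carrying 7 randomized nucleotides, whose flanks were annealed to DNA oligonucleotides, over a series of increasing protein concentrations. Unbound RNA was resolved on 8% native PAGE, cut out, reverse-transcribed, barcoded by PCR and sequenced on an Illumina HiSeq 2500. Relative association constants were derived from changes in read counts for each RNA species versus the control reaction and normalised to the cognate motif.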
On the technique in general: In EMSA bound probe runs differently from free probe, usually more slowly.
For the molecule B1, the binding signal is 0.00564 KA relative to UGCAUGU.

Consider B2, for which the binding signal is 0.00974 KA relative to UGCAUGU. Take B3: the binding signal is 0.00404 KA relative to UGCAUGU.

Turning to B4, the binding signal is 0.00584 KA relative to UGCAUGU. As for B5, the figure is 0.0186 KA relative to UGCAUGU.

As to B6, the binding signal is 0.0109 KA relative to UGCAUGU.

With B7, the binding signal is 0.00808 KA relative to UGCAUGU. Regarding B8, the binding signal was 0.00481 KA relative to UGCAUGU. As for B9, the figure is 0.00623 KA relative to UGCAUGU.

Take B10: the binding signal was 0.00519 KA relative to UGCAUGU. As for B11, the figure is 0.000193 KA relative to UGCAUGU. With B12, the binding signal is 0.0186 KA relative to UGCAUGU. As for B13, the figure is 0.00864 KA relative to UGCAUGU. As for B14, the figure is 0.0128 KA relative to UGCAUGU; as for B15, 0.00864 KA relative to UGCAUGU; as for B16, 0.0152 KA relative to UGCAUGU. Turning to B17, the binding signal was 0.00272 KA relative to UGCAUGU. As for B18, the figure is 0.00176 KA relative to UGCAUGU; as for B19, 0.0125 KA relative to UGCAUGU; as for B20, 0.0145 KA relative to UGCAUGU. As for B21, the figure is 0.0137 KA relative to UGCAUGU; as for B22, 0.0088 KA relative to UGCAUGU; as for B23, 0.0229 KA relative to UGCAUGU. As for B24, the figure is 0.00287 KA relative to UGCAUGU; as for B25, 0.00322 KA relative to UGCAUGU.

With B26, the binding signal was 0.00773 KA relative to UGCAUGU. As for B27, the figure is 0.00386 KA relative to UGCAUGU; as for B28, 0.00474 KA relative to UGCAUGU. B29: the binding signal was 0.00878 KA relative to UGCAUGU. As for B30, the figure is 0.00519 KA relative to UGCAUGU. As to B31, the binding signal is 0.0138 KA relative to UGCAUGU.

(Values after paper PMC9911399, “Two distinct binding modes provide the RNA-binding protein RbFox with extraordinary sequence specificity”.)
